# Experimental data from the supplement of paper PMC8728848.
# The list shows a part of the results.
# Tests used:
# Test in all cases: glycan array binding signal (z-score within array); higher = stronger binding
# Conditions in all cases: glycan notation: IUPAC condensed, linker removed
# Glc(b1-4)Glc = target: Glc(b1-4)Glc
# Method in brief: (§1)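 The binding signal is a Z-score computed within each array and averaged over linkers. Arrays of the same protein sequence at different concentrations or buffers were also averaged together. Data originate from 3228 arrays in the Consortium for Functional Glycomics database, kept only where the protein sequence was available.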
# Glc(b1-6)Glc = target: Glc(b1-6)Glc
# Method in brief: as §1
# GlcA(b1-3)Gal = target: GlcA(b1-3)Gal
# Method in brief: as §1
# GlcA(b1-3)GlcNAc = target: GlcA(b1-3)GlcNAc
# Method in brief: as §1
# GlcA(b1-6)Gal = target: GlcA(b1-6)Gal
# Method in brief: as §1
# [1] = target: GlcA3S(b1-3)Gal(b1-4)GlcNAc(b1-2)Man
# Method in brief: as §1
# [2] = target: GlcA3S(b1-3)Gal(b1-4)GlcNAc(b1-3)Gal(b1-4)Glc
# Method in brief: as §1
# [3] = target: GlcNAc(a1-3)Gal(b1-4)GlcNAc
# Method in brief: as §1
# [4] = target: GlcNAc(a1-4)Gal(b1-3)GlcNAc
# Method in brief: as §1
# [5] = target: GlcNAc(a1-4)Gal(b1-4)GalNAc
# Method in brief: as §1
# [6] = target: GlcNAc(a1-4)Gal(b1-4)GlcNAc
# Method in brief: as §1
# [7] = target: GlcNAc(a1-4)Gal(b1-4)GlcNAc(b1-3)Gal(b1-4)Glc
# Method in brief: as §1
# [8] = target: GlcNAc(a1-4)Gal(b1-4)GlcNAc(b1-3)Gal(b1-4)GlcNAc
# Method in brief: as §1
# [9] = target: GlcNAc(a1-4)Gal(b1-4)GlcNAc(b1-3)Gal(b1-4)GlcNAc(b1-3)Gal(b1-4)GlcNAc
# Method in brief: as §1
# [10] = target: GlcNAc(a1-4)Gal(b1-4)GlcNAc(b1-3)Gal(b1-4)[Fuc(a1-3)]GlcNAc(b1-3)Gal(b1-4)[Fuc(a1-3)]GlcNAc
# Method in brief: as §1
# [11] = target: GlcNAc(a1-6)Gal(b1-4)GlcNAc
# Method in brief: as §1
# [12] = target: GlcNAc(b1-2)Gal(b1-3)GalNAc
# Method in brief: as §1
# [13] = target: GlcNAc(b1-2)Man(a1-3)[GlcNAc(b1-2)Man(a1-6)]Man(b1-4)GlcNAc(b1-4)GlcNAc
# Method in brief: as §1
# [14] = target: GlcNAc(b1-2)Man(a1-3)[GlcNAc(b1-2)Man(a1-6)]Man(b1-4)GlcNAc(b1-4)[Fuc(a1-6)]GlcNAc
# Method in brief: as §1
# [15] = target: GlcNAc(b1-2)Man(a1-3)[GlcNAc(b1-4)][GlcNAc(b1-2)Man(a1-6)]Man(b1-4)GlcNAc(b1-4)GlcNAc
# Method in brief: as §1
# [16] = target: GlcNAc(b1-2)Man(a1-3)[GlcNAc(b1-4)][GlcNAc(b1-2)Man(a1-6)]Man(b1-4)GlcNAc(b1-4)[Fuc(a1-6)]GlcNAc
# Method in brief: as §1
# [17] = target: GlcNAc(b1-2)[GlcNAc(b1-4)]Man(a1-3)[GlcNAc(b1-2)Man(a1-6)]Man(b1-4)GlcNAc(b1-4)GlcNAc
# Method in brief: as §1
# [18] = target: GlcNAc(b1-2)[GlcNAc(b1-4)]Man(a1-3)[GlcNAc(b1-4)][GlcNAc(b1-2)Man(a1-6)]Man(b1-4)GlcNAc(b1-4)GlcNAc
# Method in brief: as §1
# [19] = target: GlcNAc(b1-2)[GlcNAc(b1-4)]Man(a1-3)[GlcNAc(b1-4)][GlcNAc(b1-2)[GlcNAc(b1-6)]Man(a1-6)]Man(b1-4)GlcNAc(b1-4)GlcNAc
# Method in brief: as §1
# [20] = target: GlcNAc(b1-2)[GlcNAc(b1-4)]Man(a1-3)[GlcNAc(b1-4)][GlcNAc(b1-2)[GlcNAc(b1-6)]Man(a1-6)]Man(b1-4)GlcNAc(b1-4)[Fuc(a1-6)]GlcNAc
# Method in brief: as §1
# [21] = target: GlcNAc(b1-2)[GlcNAc(b1-6)]Man(a1-6)[GlcNAc(b1-2)Man(a1-3)]Man(b1-4)GlcNAc(b1-4)GlcNAc
# Method in brief: as §1
# [22] = target: GlcNAc(b1-2)[GlcNAc(b1-6)]Man(a1-6)[GlcNAc(b1-2)Man(a1-3)]Man(b1-4)GlcNAc(b1-4)[Fuc(a1-6)]GlcNAc
# Method in brief: as §1
# [23] = target: GlcNAc(b1-2)[GlcNAc(b1-6)]Man(a1-6)[GlcNAc(b1-4)][GlcNAc(b1-2)Man(a1-3)]Man(b1-4)GlcNAc(b1-4)GlcNAc
# Method in brief: as §1
# GlcNAc(b1-3)Fuc = target: GlcNAc(b1-3)Fuc
# Method in brief: as §1
# GlcNAc(b1-3)Gal = target: GlcNAc(b1-3)Gal
# Method in brief: as §1
# [24] = target: GlcNAc(b1-3)Gal(b1-3)GalNAc
# Method in brief: as §1
# GlcNAc(b1-3)Gal(b1-4)Glc = target: GlcNAc(b1-3)Gal(b1-4)Glc
# Method in brief: as §1
# [25] = target: GlcNAc(b1-3)Gal(b1-4)GlcNAc
# Method in brief: as §1
# [26] = target: GlcNAc(b1-3)Gal(b1-4)GlcNAc(b1-2)Man(a1-3)[GlcNAc(b1-3)Gal(b1-4)GlcNAc(b1-2)Man(a1-6)]Man(b1-4)GlcNAc(b1-4)GlcNAc
# Method in brief: as §1
# [27] = target: GlcNAc(b1-3)Gal(b1-4)GlcNAc(b1-2)Man(a1-3)[GlcNAc(b1-3)Gal(b1-4)GlcNAc(b1-2)Man(a1-6)]Man(b1-4)GlcNAc(b1-4)[Fuc(a1-6)]GlcNAc
# Method in brief: as §1
# [28] = target: GlcNAc(b1-3)Gal(b1-4)GlcNAc(b1-2)[GlcNAc(b1-3)Gal(b1-4)GlcNAc(b1-6)]Man(a1-6)[GlcNAc(b1-3)Gal(b1-4)GlcNAc(b1-2)Man(a1-3)]Man(b1-4)GlcNAc(b1-4)GlcNAc
# Method in brief: as §1
# [29] = target: GlcNAc(b1-3)Gal(b1-4)GlcNAc(b1-3)Gal(b1-4)GlcNAc
# Method in brief: as §1
# [30] = target: GlcNAc(b1-3)Gal(b1-4)GlcNAc(b1-3)Gal(b1-4)GlcNAc(b1-2)Man(a1-3)[GlcNAc(b1-3)Gal(b1-4)GlcNAc(b1-3)Gal(b1-4)GlcNAc(b1-2)Man(a1-6)]Man(b1-4)GlcNAc(b1-4)GlcNAc
# Method in brief: as §1
# [31] = target: GlcNAc(b1-3)Gal(b1-4)GlcNAc(b1-3)Gal(b1-4)GlcNAc(b1-2)Man(a1-3)[GlcNAc(b1-3)Gal(b1-4)GlcNAc(b1-3)Gal(b1-4)GlcNAc(b1-2)Man(a1-6)]Man(b1-4)GlcNAc(b1-4)[Fuc(a1-6)]GlcNAc
# Method in brief: as §1
# [32] = target: GlcNAc(b1-3)Gal(b1-4)GlcNAc(b1-3)Gal(b1-4)GlcNAc(b1-2)[GlcNAc(b1-3)Gal(b1-4)GlcNAc(b1-3)Gal(b1-4)GlcNAc(b1-6)]Man(a1-6)[GlcNAc(b1-3)Gal(b1-4)GlcNAc(b1-3)Gal(b1-4)GlcNAc(b1-2)Man(a1-3)]Man(b1-4)GlcNAc(b1-4)[Fuc(a1-6)]GlcNAc
# Method in brief: as §1
# [33] = target: GlcNAc(b1-3)Gal(b1-4)GlcNAc(b1-3)Gal(b1-4)GlcNAc(b1-3)Gal(b1-4)GlcNAc(b1-2)Man(a1-3)[GlcNAc(b1-3)Gal(b1-4)GlcNAc(b1-3)Gal(b1-4)GlcNAc(b1-3)Gal(b1-4)GlcNAc(b1-2)Man(a1-6)]Man(b1-4)GlcNAc(b1-4)GlcNAc
# Method in brief: as §1
# [34] = target: GlcNAc(b1-3)Gal(b1-4)GlcNAc(b1-3)Gal(b1-4)GlcNAc(b1-3)Gal(b1-4)GlcNAc(b1-2)Man(a1-3)[GlcNAc(b1-3)Gal(b1-4)GlcNAc(b1-3)Gal(b1-4)GlcNAc(b1-3)Gal(b1-4)GlcNAc(b1-2)Man(a1-6)]Man(b1-4)GlcNAc(b1-4)[Fuc(a1-6)]GlcNAc
# Method in brief: as §1
# [35] = target: GlcNAc(b1-3)Gal(b1-4)GlcNAc(b1-3)Gal(b1-4)GlcNAc(b1-3)Gal(b1-4)GlcNAc(b1-2)[GlcNAc(b1-3)Gal(b1-4)GlcNAc(b1-3)Gal(b1-4)GlcNAc(b1-3)Gal(b1-4)GlcNAc(b1-6)]Man(a1-6)[GlcNAc(b1-3)Gal(b1-4)GlcNAc(b1-3)Gal(b1-4)GlcNAc(b1-3)Gal(b1-4)GlcNAc(b1-2)Man(a1-3)]Man(b1-4)GlcNAc(b1-4)[Fuc(a1-6)]GlcNAc
# Method in brief: as §1
# [36] = target: GlcNAc(b1-3)Gal(b1-4)GlcNAc(b1-3)Gal(b1-4)GlcNAc(b1-3)Gal(b1-4)GlcNAc(b1-3)Gal(b1-4)GlcNAc(b1-2)Man(a1-3)[GlcNAc(b1-3)Gal(b1-4)GlcNAc(b1-3)Gal(b1-4)GlcNAc(b1-3)Gal(b1-4)GlcNAc(b1-3)Gal(b1-4)GlcNAc(b1-2)Man(a1-6)]Man(b1-4)GlcNAc(b1-4)GlcNAc
# Method in brief: as §1
# [37] = target: GlcNAc(b1-3)Gal(b1-4)GlcNAc(b1-3)Gal(b1-4)GlcNAc(b1-3)Gal(b1-4)GlcNAc(b1-3)Gal(b1-4)GlcNAc(b1-2)Man(a1-3)[GlcNAc(b1-3)Gal(b1-4)GlcNAc(b1-3)Gal(b1-4)GlcNAc(b1-3)Gal(b1-4)GlcNAc(b1-3)Gal(b1-4)GlcNAc(b1-2)Man(a1-6)]Man(b1-4)GlcNAc(b1-4)[Fuc(a1-6)]GlcNAc
# Method in brief: as §1
binder,measurement,setting,value
"CFEM-PPl (Pichia pastoris), F2QPV1 (protein) AVATPPACLLACAAEVVKESSDCDALNNIQCICENEGSAIHACLESTCPDGLSSTALQSFEDVCESVGTEANLDE",glycan array binding signal (z-score),Glc(b1-4)Glc,-0.275
same,glycan array binding signal (z-score),Glc(b1-6)Glc,-0.28
same,glycan array binding signal (z-score),GlcA(b1-3)Gal,-0.158
same,glycan array binding signal (z-score),GlcA(b1-3)GlcNAc,-0.229
same,glycan array binding signal (z-score),GlcA(b1-6)Gal,1.49
same,glycan array binding signal (z-score),[1],-0.288
same,glycan array binding signal (z-score),[2],-0.349
same,glycan array binding signal (z-score),[3],-0.335
same,glycan array binding signal (z-score),[4],-0.34
same,glycan array binding signal (z-score),[5],-0.285
same,glycan array binding signal (z-score),[6],-0.161
same,glycan array binding signal (z-score),[7],-0.357
same,glycan array binding signal (z-score),[8],-0.209
same,glycan array binding signal (z-score),[9],-0.278
same,glycan array binding signal (z-score),[10],-0.027
same,glycan array binding signal (z-score),[11],1.68
same,glycan array binding signal (z-score),[12],-0.247
same,glycan array binding signal (z-score),[13],-0.263
same,glycan array binding signal (z-score),[14],-0.088
same,glycan array binding signal (z-score),[15],-0.298
same,glycan array binding signal (z-score),[16],-0.286
same,glycan array binding signal (z-score),[17],-0.193
same,glycan array binding signal (z-score),[18],0.002
same,glycan array binding signal (z-score),[19],-0.379
same,glycan array binding signal (z-score),[20],-0.149
same,glycan array binding signal (z-score),[21],-0.302
same,glycan array binding signal (z-score),[22],-0.088
same,glycan array binding signal (z-score),[23],-0.345
same,glycan array binding signal (z-score),GlcNAc(b1-3)Fuc,-0.321
same,glycan array binding signal (z-score),GlcNAc(b1-3)Gal,-0.275
same,glycan array binding signal (z-score),[24],-0.202
same,glycan array binding signal (z-score),GlcNAc(b1-3)Gal(b1-4)Glc,-0.288
same,glycan array binding signal (z-score),[25],-0.317
same,glycan array binding signal (z-score),[26],-0.208
same,glycan array binding signal (z-score),[27],-0.223
same,glycan array binding signal (z-score),[28],0.41
same,glycan array binding signal (z-score),[29],-0.282
same,glycan array binding signal (z-score),[30],0.02
same,glycan array binding signal (z-score),[31],-0.057
same,glycan array binding signal (z-score),[32],-0.038
same,glycan array binding signal (z-score),[33],-0.083
same,glycan array binding signal (z-score),[34],-0.05
same,glycan array binding signal (z-score),[35],-0.098
same,glycan array binding signal (z-score),[36],-0.188
same,glycan array binding signal (z-score),[37],-0.247
